# Over roughly 81,000 sequences, “one-hybrid fitness for binding parS DNA” has its median near -0.17; the highest 2% begin near 0.51. Some of the results follow.
# B1: Caulobacter ParB omega fusion; a variant is named by its letters at X, in order, B8GW30 (parent)
# chain: MESVVVGEPGMSEGRRGLGRGLSALLGEVDAAPAQAPGEQLGGSREAPIEILQRNPDQPRRTFREEDLEDLSNSIREKGVLQPILVRPSPDTAGEYQIVAGERAWRAAQRAGLKTVPIMVRELDDLAVLEIGIIENVQRADLNVLEEALSYKVLMEKFERTQENIAQTIGKSXSHVANXMRLLXLPDEVQSYLVSGELTAXHARAIAAAADPVALAKQIIEGGLSVRETEALARKAPNLSAGKSKGGRPPRVKDTDTQALESDLSSVLGLDVSIDHRGSTGTLTITYATLEQLDDLCNRLTRGI
# Variants of: B1
# Test: one-hybrid fitness for binding parS DNA (scaled: cognate 1, non-cognate 0); higher = stronger binding
# Conditions: with parS DNA site
# In short: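 In E. coli USO, a HIS3 reporter with its site placed 19 bp from the promoter was used to select Caulobacter ParB variants randomised at four specificity codons. Growth lasted 48 hours at 37°C on histidine-free M9 containing 0.1 mM IPTG and 5 mM 3-AT. Fitness was taken as the log change in variant-to-wild-type read ratio from Illumina sequencing of pre- and post-selection plasmids, rescaled between the non-cognate and cognate sites.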
row,Variant,one-hybrid fitness for binding parS DNA
1,STDK,≤ 0.2
2,SQKA,≤ 0.2
3,PKME,≤ 0.2
4,DKDK,≤ 0.2
5,HLSA,≤ 0.2
6,TCQL,≤ 0.2
7,YDGC,≤ 0.2
8,KYCC,≤ 0.2
9,DDKR,≤ 0.2
10,YDNC,≤ 0.2
11,CSHW,≤ 0.2
12,ATNS,≤ 0.2
13,THFA,≤ 0.2
14,GKMI,≤ 0.2
15,PIVP,≤ 0.2
16,QQIE,≤ 0.2
17,AARD,≤ 0.2
18,RFDM,0.229
19,HDFG,≤ 0.2
20,TYQC,≤ 0.2
21,QIIG,≤ 0.2
22,YYKC,≤ 0.2
23,QERL,≤ 0.2
24,QRMW,≤ 0.2
25,TGKF,≤ 0.2

row,Variant,one-hybrid fitness for binding parS DNA
1,RGCD,≤ 0.2
2,APDS,≤ 0.2
3,PDRE,≤ 0.2
4,PSYR,≤ 0.2
5,VKWF,≤ 0.2
6,LTNI,≤ 0.2
7,KLRY,≤ 0.2
8,PQTI,≤ 0.2
9,CQTS,≤ 0.2
10,QRHC,≤ 0.2
11,ECLD,≤ 0.2
12,SPGV,≤ 0.2
13,QFMS,≤ 0.2
14,VSCH,≤ 0.2
15,PQTF,≤ 0.2
16,ECNG,≤ 0.2
17,AVNP,≤ 0.2
18,YCWS,≤ 0.2
19,NQQC,≤ 0.2
20,YDRS,≤ 0.2
21,MANC,≤ 0.2
22,ACAT,≤ 0.2
23,RWLY,0.266
24,SMLS,≤ 0.2
25,DYDS,≤ 0.2

row,Variant,one-hybrid fitness for binding parS DNA
1,LSNG,≤ 0.2
2,FLNF,≤ 0.2
3,PPMH,0.241
4,KLDW,≤ 0.2
5,ANCL,≤ 0.2
6,RVEP,≤ 0.2
7,FMLY,≤ 0.2
8,TEHK,≤ 0.2
9,EDRC,≤ 0.2
10,FYTV,≤ 0.2
11,PQEY,≤ 0.2
12,YCWI,≤ 0.2
13,MLPW,≤ 0.2
14,CPSS,≤ 0.2
15,TVTW,≤ 0.2
16,HMVS,≤ 0.2
17,YRKN,≤ 0.2
18,MWVV,≤ 0.2
19,MTKV,≤ 0.2
20,ILEC,≤ 0.2
21,KRNN,≤ 0.2
22,VSTC,≤ 0.2
23,SEMV,≤ 0.2
24,FCRC,≤ 0.2
25,FWVR,≤ 0.2

row,Variant,one-hybrid fitness for binding parS DNA
1,HADS,≤ 0.2
2,WAAM,≤ 0.2
3,MLVC,≤ 0.2
4,YPLD,≤ 0.2
5,LWTW,≤ 0.2
6,VQSG,≤ 0.2
7,QEAK,0.349
8,TSRQ,≤ 0.2
9,LKFC,≤ 0.2
10,PCSG,≤ 0.2
11,GGHY,≤ 0.2
12,LQCQ,≤ 0.2
13,MGRG,≤ 0.2
14,IDVG,≤ 0.2
15,HRFI,≤ 0.2
16,HLIS,≤ 0.2
17,TGCG,≤ 0.2
18,SCGE,≤ 0.2
19,VYTY,≤ 0.2
20,VWLM,≤ 0.2
21,SMET,≤ 0.2
22,QLIS,≤ 0.2
23,SDGV,≤ 0.2
24,VIIS,≤ 0.2
25,HYQC,≤ 0.2

row,Variant,one-hybrid fitness for binding parS DNA
1,TATH,≤ 0.2
2,QHSW,≤ 0.2
3,SRTC,≤ 0.2
4,AHNP,≤ 0.2
5,WSRF,≤ 0.2
6,QTHR,≤ 0.2
7,GNDT,≤ 0.2
8,QRDP,≤ 0.2
9,NVYW,≤ 0.2
10,KFSD,≤ 0.2
11,QQNE,≤ 0.2
12,HLGR,≤ 0.2
13,KSKC,≤ 0.2
14,LATK,≤ 0.2
15,NRSS,≤ 0.2
16,IVNV,≤ 0.2
17,LESN,≤ 0.2
18,WMKC,≤ 0.2
19,HAES,≤ 0.2
20,WYQG,≤ 0.2
21,DPHQ,≤ 0.2
22,TFTC,≤ 0.2
23,RNEE,≤ 0.2
24,PQHL,≤ 0.2
25,EHKL,≤ 0.2

row,Variant,one-hybrid fitness for binding parS DNA
1,DAAW,≤ 0.2
2,IEHS,≤ 0.2
3,VAAP,≤ 0.2
4,KWCV,0.246
5,RWPT,0.284
6,MQRS,≤ 0.2
7,QCAR,≤ 0.2
8,LMLL,≤ 0.2
9,PMRD,≤ 0.2
10,DGNC,≤ 0.2
11,AIHH,≤ 0.2
12,QDCP,≤ 0.2
13,SCEE,≤ 0.2
14,HHNY,≤ 0.2
15,DLHL,≤ 0.2
16,PLGH,≤ 0.2
17,DYRY,≤ 0.2
18,IGPF,≤ 0.2
19,GEMW,≤ 0.2
20,YRKY,≤ 0.2
21,QDVT,≤ 0.2
22,LCTK,≤ 0.2
23,RTGR,≤ 0.2
24,TAVM,≤ 0.2
25,VMFF,≤ 0.2

row,Variant,one-hybrid fitness for binding parS DNA
1,HYNS,≤ 0.2
2,PMRV,≤ 0.2
3,RAVY,0.412
4,RHER,≤ 0.2
5,PCTG,≤ 0.2
6,QNPE,≤ 0.2
7,HATC,≤ 0.2
8,LGRC,≤ 0.2
9,HQEL,≤ 0.2
10,VQRK,≤ 0.2
11,ENSK,≤ 0.2
12,MALG,≤ 0.2
13,GLCW,≤ 0.2
14,RKSY,0.366
15,ISCI,≤ 0.2
16,YGPV,≤ 0.2
17,NVTV,≤ 0.2
18,RLSC,0.98
19,RTGN,0.44
20,RGLW,≤ 0.2
21,QPIF,≤ 0.2
22,TVSV,≤ 0.2
23,KVWR,≤ 0.2
24,RIDH,0.231
25,AFAH,≤ 0.2

row,Variant,one-hybrid fitness for binding parS DNA
1,EYRF,≤ 0.2
2,HPSG,≤ 0.2
3,SRPH,≤ 0.2
4,KAMG,≤ 0.2
5,CRHS,≤ 0.2
6,SPVM,≤ 0.2
7,HQTI,≤ 0.2
8,YRGR,≤ 0.2
9,CSTL,≤ 0.2
10,TTDC,≤ 0.2
11,DHGT,≤ 0.2
12,FSIV,≤ 0.2
13,LWAV,≤ 0.2
14,IWRI,≤ 0.2
15,ASKG,≤ 0.2
16,HHPW,≤ 0.2
17,NQRT,≤ 0.2
18,PQSA,≤ 0.2
19,AGIK,≤ 0.2
20,PNWL,≤ 0.2

# From a collection of fitness landscapes (doi:10.1016/j.celrep.2020.107928)
